Whole data set: some 81,000 sequences, median “one-hybrid fitness for binding NBS DNA” near -0.1, cut for the highest 2% near 0.36. The list shows a part of the results.
B1: Caulobacter ParB omega fusion; a variant is named by its letters at X, in order, B8GW30 (parent)
chain: MESVVVGEPGMSEGRRGLGRGLSALLGEVDAAPAQAPGEQLGGSREAPIEILQRNPDQPRRTFREEDLEDLSNSIREKGVLQPILVRPSPDTAGEYQIVAGERAWRAAQRAGLKTVPIMVRELDDLAVLEIGIIENVQRADLNVLEEALSYKVLMEKFERTQENIAQTIGKSXSHVANXMRLLXLPDEVQSYLVSGELTAXHARAIAAAADPVALAKQIIEGGLSVRETEALARKAPNLSAGKSKGGRPPRVKDTDTQALESDLSSVLGLDVSIDHRGSTGTLTITYATLEQLDDLCNRLTRGI

Variants of: B1
Assay: one-hybrid fitness for binding NBS DNA (the Noc-binding site; scaled: cognate 1, non-cognate 0); higher = stronger binding
Settings: with NBS DNA site
In short: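 Fitness is the rescaled log change in variant-to-wild-type read ratio, measured by Illumina sequencing of plasmids before and after bacterial one-hybrid selection. The scale puts cognate at 1 and non-cognate at 0. Selection of Caulobacter ParB libraries, four specificity codons randomised, took place in E. coli USO with a HIS3 reporter, site 19 bp from the promoter, over 48 hours at 37°C on M9-minus-histidine with 0.1 mM IPTG and 5 mM 3-AT.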

one-hybrid fitness for binding NBS DNA, 0.266:
QRTW

one-hybrid fitness for binding NBS DNA, 0.389:
TRGR

one-hybrid fitness for binding NBS DNA, ≤ 0.2:
AVEY
VVNV
SWRE
AFCT
LERC
QELY
NGLK
VYMM
SPWL
LQTV
LSMI
RQFW
YRAD
YPAL
PVKF
DGLG
VIIF
NRSY
IPHT
IDQC
YQEC
KVHL
LLGG
MNAL
ERHY
CFSG
NRHD
TMTA
IFSF
MQSN
WLFI
YDYT
HMAS
APAV
MLAW
EPLE
CSSS
LDNI
GDRY
NMCC
HPIR
FHLG
SKAL
PEPV
PHIH
TPSG
GHVR
DQFG
ACSG
PQQI
YDKE
VDPE
CVVG
QGDV
KDVR
RKLI
LSVA
EATG
WLLY
THFP
HRTR
AHCT
RGDP
FHFS
WYFL
RDPV
SAQS
DKMS
LWQG
DEKS
SHDT
SGLF
SKLY
AVPS
LLID
AGEG
DRRH
ADNY
RCWL
QQQN
GWHG
PPKG
DGQV
KPLT
ANVR
YKRV
KVQR
GYCS
THLA
GNYT
LCQT
FAPW
SMCR
TTSC
PALT
IFVS
YPCV
QYAK
IQQS
VFVD
RPSH
KYTL
YDDT
HNRN
WYRT
LFMG
GHHG
PPTC
EYLG
RYYW
SFSL
MEMS
ERFR
ISIL
TETS
QEGT
QELV
AYPR
VNWS
RHVY
LYMD
KLVA
RIML
FGDM
CFNG
TMWP
PTDF
MWIV
TNKT
WGMR
LCCS
CMPG
GFRL
ERHC
RNNI
HEDP
VPRK
HHSK
KMGD
YLTW
RHDY
HSSE
GQER
KMGS
KNDS
TDVI
AELY
FASK
IKWT
TGLR
PTRC
ITDG
PSVP
RSNC
PYNE
NDLG
LSWS
ADYM
AGSW
QENT
VNGF
SFKN
TDNC
VIKE
QVHD
YFSC
RINC
TQMR
RPTM
GEPR
FTVA
TPWT
QKVL
TQHC
VYIC
PKLR
GSST
FHRT
TGMG
INPS
RNMG
YWSP
AYQQ
EHAC
HGHL
SSGP
VCPG
NRKE
LYIC

one-hybrid fitness for binding NBS DNA, 0.766:
QRKH

one-hybrid fitness for binding NBS DNA, 0.296:
RRYM

one-hybrid fitness for binding NBS DNA, 0.517:
QSKY

one-hybrid fitness for binding NBS DNA, 0.658:
QTKY

Source: a collection of fitness landscapes (doi:10.1016/j.celrep.2020.107928)
